# Results from PubChem BioAssay AID686971 (National Center for Advancing Translational Sciences (NCATS), 2013).
# The whole screen tested about 360,000 compounds, of which about 7,500 (2.1%) were called active. Inconclusive means that the source gave no clear call. Such entries were picked first, then a sample of the others. Calls follow the shape of the dose curve; as a rule, active = well fitted cell-killing curve with a large enough effect; inconclusive = small, poorly fitted or top-dose-only effect, or effect the other way, or another doubt; inactive = no such curve, though single readings can be large or run the other way. No potency is given beside an inconclusive call; the fits are too rough.
# Experiment: qHTS for induction of synthetic lethality in tumor cells producing 2HG: qHTS for the HT-1080-IDH1KD cell line;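 as to activity, negative = toxicity: 0% = DMSO wells and -100% = cell-free medium wells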
# Conditions: HT-1080 IDH1 knockdown viability, ATP luminescence, 48 h; activity, negative = toxicity: at 46.1 µM (top of the series) unless noted
# In short: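 Knockdown cells (IDH1KD HT-1080) received compounds 2 h after plating at 750 cells/well and were kept 48 h at 37 °C in 5% FBS RPMI. A CellTiter-Glo luminescence read gave % activity for curve fitting.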
# Potency is read from the fitted curve at half-maximal effect; tags tell the direction and shape of the fitted curve.
Structure (SMILES),Potency,"activity, negative = toxicity"
COc1ccccc1/C=C/C(=O)c1ccc(NC(C)=O)cc1,"inconclusive [cytotoxic, single point]",–
CCCCCCCCCc1nc2sc3c(c2c(=O)n1NC(=O)c1ccc([N+](=O)[O-])cc1)CC(C)(C)OC3,"inconclusive [cytotoxic, single point]",–
COc1cccc(N2CC(O)=C(c3nc4ccccc4c(=O)[nH]3)C2=N)c1,"inconclusive [cytotoxic, full curve]",–
C#CC[N+](C)(C)CCCCCCCCC,"inconclusive [cytotoxic, partial curve]",–
CCOc1ccc(-c2nnn(CC#N)n2)cc1OC,"inconclusive [cytotoxic, single point]",–
CC(C)N(Cc1ccccc1)C(=O)CN1C(=O)NC2(CCCCCC2)C1=O,–,inactive: 6.34%
COc1cc2c(cc1OC)C(C)N(C(=O)Nc1ccc(F)cc1)CC2 (stereo unspecified),"inconclusive [cytotoxic, single point]",–
Brc1cc(-c2ccccc2)nc(-c2ccccc2)n1,"inconclusive [cytotoxic, single point]",–
CN1CCN(C(=S)Nc2ccc(Cl)cc2)CC1,–,inactive: 13.5%
CCOC(=O)c1c(C)n(C)c2ccc(OCC(O)CN3C(=O)c4ccccc4S3(=O)=O)cc12 (stereo unspecified),"inconclusive [cytotoxic, partial curve, poor fit]",–
O=C1c2[nH]nc(-c3ccccc3O)c2C(c2ccccc2)N1Cc1ccco1 (stereo unspecified),"inconclusive [cytotoxic, single point]",–
CC1(c2ccc(Cl)cc2Cl)OCC(Cn2ccnc2)O1 (stereo unspecified),"inconclusive [cytotoxic, single point]",–
C/C(=N\Nc1ccccn1)c1ccc(OC(F)F)cc1,"inconclusive [cytotoxic, single point]",–
COc1cc(NC(=O)Cc2ccccc2)ccc1NC(=O)c1ccco1,–,inconclusive: 34.3%
Cc1ccc2c(c1)C(=O)C(=O)N2CC1COc2ccccc2O1 (stereo unspecified),"inconclusive [cytotoxic, single point]",–
CCN1C(c2ccccc2)=C(c2ccccc2)S/C1=C\C=C1/SC(=S)N(C)C1=O,"inconclusive [cytotoxic, partial curve, poor fit]",–
CCn1nc(C(=O)OC(C(=O)c2c[nH]c3ccccc23)c2ccccc2)c2ccccc2c1=O (stereo unspecified),"inconclusive [cytotoxic, single point]",–
COc1ccc(NC(=O)CSc2nc3c(sc4ccccc43)c(=O)n2CCCN2CCCC2)cc1,"inconclusive [cytotoxic, partial curve]",–

Structure (SMILES),Potency,"activity, negative = toxicity"
Oc1ccc(N=Cc2ccc(-c3cccs3)s2)cc1,active: 10 µM,–
CC(C)CN=C(NS(=O)(=O)c1ccccc1)C(Cl)(Cl)Cl,active: 6.51 µM,–
CCOC(=O)c1sc(NC(=O)CSc2n[nH]c(-c3ccncc3)n2)c(C#N)c1C,"inconclusive [cytotoxic, single point]",–
Cc1c(C(=O)OCC(=O)NCc2ccco2)cccc1[N+](=O)[O-],–,inactive: 3.63%
CCCC(c1nnnn1C(C)(C)CC)N(CCCO)Cc1cc2cc(C)cc(C)c2[nH]c1=O (stereo unspecified),"inconclusive [cytotoxic, single point]",–
COc1ccc(-n2cc(CNCCc3cscn3)c(-c3ccccc3Cl)n2)cc1,–,inactive: -20.9%
COc1ccc(CNC(=O)C2CCN(c3cc(C(=O)Nc4cccc(OC)c4)ccn3)CC2)cc1,–,inactive: -0.518%
O=C(CNCCC1=CCCCC1)Nc1ccccc1N1CCCCC1,"inconclusive [cytotoxic, single point]",–
COc1ccc(-c2oc(NC(=O)CSc3ncn[nH]3)c(C#N)c2-c2ccc(OC)cc2)cc1,"inconclusive [cytotoxic, single point]",–
COC1=C(Br)C(=O)c2ncccc2C1=O,active: 8.2 µM,–
CC(C)N1CC(C(=O)Nc2ccc(Cl)cc2Cl)CC1=O (stereo unspecified),–,inactive: 0.399%
COc1cccc(CNC(=O)c2ccc(C(=O)NCc3cccc(OC)c3)cc2)c1,"inconclusive [cytotoxic, single point]",–
Cn1c2ccccc2c(=O)c2ccc(C#Cc3ccc(N)cc3)cc21,"inconclusive [cytotoxic, single point]",–
NC(=S)N/N=C/c1ccccc1OCc1cccc(Cl)c1,"inconclusive [cytotoxic, single point]",–
CCC/C=N/NC(=O)c1[nH]c2c([N+](=O)[O-])cccc2c1C,"inconclusive [cytotoxic, full curve]",–
CCN(CC)CCNC(=O)C1CCN(S(=O)(=O)c2c(C)noc2/C=C/c2ccccc2F)CC1,"inconclusive [cytotoxic, single point]",–
O=C(O)c1ccc(/C=N\Nc2ccccn2)cc1,"inconclusive [cytotoxic, partial curve]",–
O=C(Nc1nccs1)c1cc([N+](=O)[O-])ccc1Cl,"inconclusive [cytotoxic, single point]",–
